# Values joined by “and” are separate entries in the source; they are usually repeats but may differ in a detail not shown here. Identical values can stand only once. The campaign covered roughly 340,000 compounds. About 12,000 (3.5%) were called active. The inconclusive results got no clear call from the source; some entries with a clear call stand among them for comparison. Calls follow the shape of the dose curve; as a rule, active = well fitted inhibition curve with a large enough effect; inconclusive = small, poorly fitted or top-dose-only effect, or another doubt; inactive = no such curve, though single readings can be large or run the other way. Potencies of inconclusive entries are doubtful fits and often do not repeat.
# Experiment: qHTS Assay for Inhibitors of Hepatitis C Virus (HCV)
# Details: Huh7.5.1 HCVcc-Cre (HCVcc is cell-culture hepatitis C virus) infection, luciferase reporter, 44 h; series mostly up to 41.8 µM
# How it was run: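 Luciferase read-out (15 sec integration) after a 15 min room-temperature substrate step quantifies HCVcc-Cre infection. Cells, 1,000 per well, had compound added 4 h post-plating, then virus at ~0.5 moi, and were cultured 44 h.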
# Potency is read from the fitted curve at half-maximal effect; tags tell the direction and shape of the fitted curve.
row,SMILES,Potency
1,CCCc1cc(=O)[nH]c2nnc(SCC(=O)N3CC(C)OC(C)C3)n12 (configuration not stated),inactive
2,COc1ccc(C(=O)NC2CCN(Cc3ccccc3)C2)cc1S(=O)(=O)N1CCOCC1 (configuration not stated),inactive
3,c1ccc(-c2ccccc2OCCCN2CCCCCC2)cc1,"inconclusive: 25.1 µM [inhibitor, single point]"
4,C=CCNc1nc(-c2ccc([N+](=O)[O-])cc2)cs1,"inconclusive: 31.6 µM [inhibitor, single point]"
5,CCOC(=O)c1[nH]c2ccc(F)cc2c1NC(=O)c1cc(OC)c(OC)c(OC)c1,"inconclusive: 10 µM [inhibitor, partial curve]"
6,CCC(=O)Nc1cccc(C(=O)N(Cc2ccccc2)Cc2ccccc2)c1,"inconclusive: 12.6 µM [inhibitor, single point]"
7,Cc1ccc(-n2[nH]c(C)c(/C=N/NC(=O)c3ccc(O)cc3O)c2=O)cc1,"inconclusive: 31.6 µM [inhibitor, single point]"
8,CCC(CC)NC(=O)Nc1ccc(C)cc1,inactive
9,Oc1ccccc1C=NN=Cc1ccccc1Cl,"inconclusive: 11.2 µM [inhibitor, single point]"
10,CCCCn1c(=O)[nH]c(=O)c2c1nc(Cn1ncc(Cl)c(Cl)c1=O)n2CCC,active: 10 µM
11,Nn1cnc2scc(-c3cccs3)c2c1=O,inactive
12,O=C(NCCc1ccccc1)C1CCCN(c2cnccn2)C1 (configuration not stated),"inconclusive: 31.6 µM [inhibitor, single point]"
13,Oc1ccc(Oc2ncc(Cl)cc2Cl)cc1,inactive
14,Cc1c(OCC(=O)N2CCC(C(=O)O)CC2)ccc2c3c(c(=O)oc12)CCC3,active: 0.316 µM
15,CCC(CC)NC(=O)c1oc2ccccc2c1COc1ccccc1,"inconclusive: 14.1 µM [inhibitor, single point]"
16,COc1ccc(-n2cc(CNCCc3ncc(C)[nH]3)c(-c3ccccc3Cl)n2)cc1,inactive
17,Cc1cccc(N2CCN(S(=O)(=O)c3ccc4c(c3)CCCN4C(=O)C3CCC3)CC2C)c1 (configuration not stated),"inconclusive: 5.62 µM [inhibitor, full curve]"
18,COc1ccc(NC(=O)c2oc3ccccc3c2NC(=O)c2ccc3c(c2)OCO3)cc1,"inconclusive: 3.55 µM [inhibitor, full curve, poor fit]"
19,Nc1c2c(nc3ccccc13)CCN(Cc1ccccc1)C2,"inconclusive: 11.2 µM [inhibitor, partial curve]"
20,COc1cc(C(=O)NCC(c2cccnc2)N2CCN(c3ccccc3)CC2)cc(OC)c1OC (configuration not stated),"inconclusive: 31.6 µM [inhibitor, single point]"
21,O=C(O)c1ccc(N/N=C/c2ccncc2)cc1,inactive
22,CC(C)c1ccc2[nH]c3c(c2c1)CCC/C3=N\NC(=O)c1ccncc1,active: 0.355 µM
23,O=C(CSc1cccc[n+]1[O-])c1cc(Cl)ccc1Cl,"inconclusive: 5.62 µM [inhibitor, single point]"
24,CN1CCN(Cc2ccccc2Sc2ccccc2)CC1,"inconclusive: 12.6 µM [inhibitor, partial curve]"

row,SMILES,Potency
1,CCn1c(SCc2nc(N)nc(N3CCCCC3)n2)nc2c1c(=O)n(C)c(=O)n2C,"inconclusive: 31.6 µM [inhibitor, single point]"
2,Cc1ccc(Cn2nc(C)c(C(=O)N3CCN(S(=O)(=O)/C=C/c4ccccc4)CC3)c2C)cc1,"inconclusive: 11.2 µM [inhibitor, single point]"
3,C/C(CC(=O)Nc1ccc(Cl)c(C(F)(F)F)c1)=N\NC(N)=S,active: 6.31 µM
4,COCCCN1C(=O)C(O)=C(C(=O)c2ccco2)C1c1ccc(Br)cc1 (configuration not stated),"inconclusive: 3.55 µM [inhibitor, single point]"
5,COc1cccc(C(C(=O)NC(C)(C)C)N(Cc2ccc(C)cc2)C(=O)CCC(=O)Nc2cc(C)on2)c1OC (configuration not stated),active: 11.2 µM
6,COc1ccc(Br)cc1C1N2CC3(C)CN1CC(C)(C2)C3=O (configuration not stated),inactive
7,Cc1ccc(C(=O)NNC(=O)CSc2nnc(-c3ccccc3)n2Cc2ccccc2)cc1,inactive
8,COc1ccc(OCC(=O)Nc2ccc(NC(=O)c3ccco3)c(C)c2)cc1,inactive
9,COc1ccc(NC(=S)NCCc2c[nH]c3ccc(OC)cc23)c(OC)c1,"inconclusive: 11.2 µM [inhibitor, single point]"
10,CCOC(=O)N1CCc2[nH]c3ccc(C)cc3c2C1,"inconclusive: 22.4 µM [inhibitor, single point]"
11,O=C(N/N=C/c1sc(=O)n(-c2ccccc2)c1Cl)c1ccncc1,"inconclusive: 11.2 µM [inhibitor, single point]"
12,Cc1[nH]c2ccccc2c1C(=O)COc1ccccc1F,"inconclusive: 31.6 µM [inhibitor, single point]"
13,O=c1c2cc(NC(=S)NC3CCN(Cc4ccccc4)CC3)ccc2nc2n1CCCCC2,"inconclusive: 8.91 µM [inhibitor, partial curve]"
14,Cc1cc(NC(=O)CSc2nc(-c3ccccc3Cl)nc3c2c(=O)n(C)c(=O)n3C)no1,"inconclusive: 31.6 µM [inhibitor, single point]"
15,C=Cc1cc(OC)c2c(c1)c(=O)oc1c2cc(OC)c2c(O)ccc(C3OC(C)C(O)C(C)(O)C3O)c21 (configuration not stated),active: 1 µM
16,O=[N+]([O-])c1cc(C(F)(F)F)ccc1N1CCN(S(=O)(=O)c2ccc3ccccc3c2)CC1,active: 6.31 µM
17,O=C(N/N=C\c1c(O)ccc2ccccc12)c1ccc(Cn2cccn2)o1,"inconclusive: 11.2 µM [inhibitor, single point]"
18,O=C(Nc1ccc(Cl)cc1)C1CCCN(c2ncnc3c2nc2n3CCCCC2)C1 (configuration not stated),"inconclusive: 11.2 µM [inhibitor, partial curve]"
19,CCN(CC)c1nc2c3c(nc4c(c3c1C#N)CC(=O)N4c1ccc(Cl)cc1)NC(C)=N2,"inconclusive: 31.6 µM [inhibitor, single point]"
20,O=C(NCCCN1CCN(c2cccc(Cl)c2)CC1)C1CCC(=O)N1Cc1ccccc1Cl (configuration not stated),"inconclusive: 7.94 µM [inhibitor, partial curve]"
21,CCN(Cc1cc2cc(OC)ccc2[nH]c1=O)C(=O)Cc1ccc(OC)cc1,"inconclusive: 31.6 µM [inhibitor, single point]"
22,COc1cccc(Cn2c(Oc3ccccc3)nc3c2c(=O)n(C)c(=O)n3C)c1,"inconclusive: 22.4 µM [inhibitor, single point] and inconclusive: 31.6 µM [inhibitor, single point]"
23,Cn1c2ccccc2c2ncn(CCCN3CCOCC3)c(=O)c21,"inconclusive: 2.82 µM [inhibitor, full curve]"
24,CC(=O)N(c1nc(CCl)cs1)c1cccc(C)c1C,inactive

row,SMILES,Potency
1,O=C(c1ccc(F)cc1)c1ccc(N2CCCC2)cc1,"inconclusive: 15.8 µM [inhibitor, single point]"
2,Cc1ccc2nc3c(cc(C(=O)NCCc4ccccc4)c(=N)n3CC3CCCO3)c(=O)n2c1 (configuration not stated),"inconclusive: 10 µM [inhibitor, partial curve]"
3,COc1ccc(OC)c(C(c2nnnn2C(C)(C)C)N2CCc3ccccc3C2)c1 (configuration not stated),active: 7.94 µM
4,CN1CCc2c(sc3c2c(=O)n(-c2ccccc2)c2nnc(SCc4ccc(F)cc4)n32)C1,inactive
5,O=C(NCC(c1cccnc1)N1CCN(c2ccccc2F)CC1)Oc1ccccc1 (configuration not stated),inactive
6,C=C(C)CNC(=S)N=Nc1c(O)[nH]c2ccc([N+](=O)[O-])cc12,active: 25.1 µM
7,Cc1cc2nc3c(nc2cc1C)C1(C(=O)N(C)C)CCC3(C)C1(C)C (configuration not stated),inactive
8,CC(=O)N(C)c1ccc(NC(=O)COc2ccc(Br)cc2C)cc1,"inconclusive: 31.6 µM [inhibitor, single point]"
9,NC(=O)c1ccccc1NCC(=O)c1ccc(F)cc1,inactive
10,O=C(N/N=C/c1ccc(Br)s1)c1ccncc1,inactive
11,COc1cccc(C2c3c(oc4ccc(Cl)cc4c3=O)C(=O)N2c2cc(C)on2)c1OC (configuration not stated),inactive
12,Cc1cc(C(=O)COC(=O)c2cc(Cl)ccc2N)c(C)n1Cc1ccco1,"inconclusive: 12.6 µM [inhibitor, single point]"
13,CCOC(=O)c1c(C)[nH]c(C(=O)N/N=C/c2ccc(OC)c(OC)c2)c1C,"inconclusive: 2.82 µM [inhibitor, partial curve]"
14,CC(C)CN1CCNC(=O)C1CC(=O)NCCc1ccc(C(F)(F)F)cc1 (configuration not stated),inactive
15,NC(=O)CCCn1c(C(=O)c2ccc(Cl)cc2)c2ccc([N+](=O)[O-])cc2[n+]1[O-],"inconclusive: 12.6 µM [inhibitor, partial curve]"
16,CC(=O)c1ccc(NC(=O)CN2C(=O)NC3(CCc4ccccc43)C2=O)cc1 (configuration not stated),inactive
17,O=C(NC(=S)NCCCN1CCOCC1)c1cccc2ccccc12,inactive
18,COc1cccc(OCc2cc(C(=O)N3CCNC(=O)C3Cc3ccccc3)no2)c1 (configuration not stated),inactive
19,Nc1n[nH]c(=S)n1/N=C1/C(=O)Nc2ccccc21,inactive
20,CCc1ccc(NC(=O)Nc2ccc3c(c2)N(C)C(=O)CS3)cc1,inactive
21,Cc1cc(C)n(CC(O)Cn2c3ccccc3c3ccccc32)n1 (configuration not stated),"inconclusive: 10 µM [inhibitor, single point]"
22,O=C(NCC(=O)N(Cc1ccc(F)cc1)C(C(=O)NC1CCCC1)c1ccco1)c1ccco1 (configuration not stated),"inconclusive: 2.82 µM [inhibitor, partial curve]"
23,COc1ccc(-c2cc3nc4n(c(=O)c3s2)CCCCC4)cc1,"inconclusive: 31.6 µM [inhibitor, single point]"
24,COc1ccc(C)cc1Nc1nc(N)c2ccccc2n1,"inconclusive: 31.6 µM [inhibitor, single point]"

# Source: PubChem BioAssay AID651820 (National Center for Advancing Translational Sciences (NCATS), 2012)
